Test results taken from the supplement of paper PMC10338343.
± gives the standard deviation. Over roughly 5,500 sequences, “pre-steady-state target cleavage rate” has its median near 0.1; the highest 2% begin near 0.64. This is a selection; strong and weak results do not stand in their true shares.

Tested on: MIWI (PIWIL1) piRISC loaded with piRNA #2 (30 nt)
Test: pre-steady-state target cleavage rate (min^-1); MIWI and MILI are mouse PIWI proteins and EfPiwi is from a freshwater sponge; tags in brackets are library labels; higher = faster piRNA-guided slicing of the target
Details: guide: piRNA #2 5'p-UUAGGUAACCCAGUAGAUCCAGAGGAAUUC; auxiliary factor: 500 nM mouse GTSF1
Protocol: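 Cleave-'n-Seq: a library of target RNAs (target site embedded in constant flanks, ACAGCATTCCGCGTTAGTGATATCCG... 5' flank; DNA-blocked outside the site) at 0.1 nM was incubated with 1 nM active mouse MILI or MIWI piRISC (synthetic 5'-monophosphorylated piRNA guide) with or without 500 nM mouse GTSF1 at 33 °C for 1 min to 16 h. Uncleaved targets were sequenced and normalised to non-target controls, and the pooled three trials were fitted to a burst-and-steady-state model to give the pre-steady-state cleavage rate (min^-1; k3 is constrained to at most 1e-4). Sequence is the target site only; target names encode pairing extent (gX:gY) and contiguous / 1-mismatch / 2-mismatch / bulge geometry. Fits with R² ≤ 0 are excluded.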

| Sequence | pre-steady-state target cleavage rate |
| --- | --- |
| CUUAUCCUCUGGAUCUACAGGGUUACGUAA | 0.264 ± 0.024 |
| GAAUUCGACUGGAUCUACUGGGUUACCUAA | 0.249 ± 0.039 |
| CUUAACCUCUGUAUCUACUGGGUUACCUAA | 0.347 ± 0.035 |
| CUUAAGCUCUGGAUCUAGUGGGUUACCUUA | 0.0301 ± 0.0077 |
| CUUAAGGACUGGUUCUACUGGCUUACCUAA | 0.0222 ± 0.021 |
| GAAUUCCUCUGGAUCUACUGGGUUAUCUAA | 0.504 ± 0.059 |
| GAAUUCGUCUGGAUCUACUCGGUUACCUAA | 0.043 ± 0.021 |
| GAAUGUCCUCUGGAUCUACUGGGUUACCUAA | 0.0571 ± 0.028 |
| CUUAUCCUCUGCAUCUACUGGGAUACCUAA | 0.124 ± 0.017 |
| CAUUUCCUGUGGAUCUACUGGGUUACCUAA | 0.4 ± 0.042 |
| CUUAAGCUCUGGAUAUACUGGGUUACCUAA | 0.223 ± 0.02 |
| CUAUUCCUCUGGAUCUACUGGGUUACCUCAA | 0.392 ± 0.06 |
| CUUAAGGUCUGCAUCUACUGGGUUACCUAA | 0.183 ± 0.027 |
| CUUAACCUCUGGAUCUUCUGGGAUACCUAA | 0.0792 ± 0.0094 |
| CUUAAGGUGUGGAUCUACUGGGUAACCUAA | 0.0163 ± 0.0095 |
| CAAUUGCUCUGGUUCUACUGGGUUACCUAA | 0.466 ± 0.038 |
| GAAUUGCUCUGGAUCUAGUGGGUUACCUAA | 0.0184 ± 0.0082 |
| CUUUUCCUCGGGAUCUACUGGGUUACCUAA | 0.306 ± 0.071 |
| CUUAAGCUCUGGUUCUACUGGGUAACCUAA | 0.0353 ± 0.0063 |
| CUUAACUCUGGAUCUACUGGGUUACCUAA | 0.0611 ± 0.012 |
| GAAUUCCUCUGCAUCUACUCGGUUACCUAA | 0.0997 ± 0.014 |
| CAAUUCCUCUGGAUCUACUGGAUUACCUAA | 0.338 ± 0.052 |
| CUAUUCCUCUGGAUCUACUGGUUUACCUAA | 0.245 ± 0.026 |

| Sequence | pre-steady-state target cleavage rate |
| --- | --- |
| GAAUACCUCUGGAUCUACUGGGUUACCUAA | 0.25 ± 0.049 |
| GAAUUCCUAUGGAUCUACUGGGUUACCUAA | 0.401 ± 0.036 |
| CUUUUCCUCUGGAUCUACUGGUUUACCUAA | 0.237 ± 0.018 |
| CUUAACGUCUGGAUCUACUCGGUUACCUAA | 0.0453 ± 0.018 |
| CUUAACCUCUGGAUCUUCUGCGUUACCUAA | 0.165 ± 0.02 |
| CUUAAGGUCUGGAUCUACUAGGUUACCUAA | 0.111 ± 0.013 |
| CUUAAGCUCUGGAUCUUCUGCGUUACCUAA | 0.0806 ± 0.019 |
| CUAUUCCUCUGGAUCUACUGGCAUACCUAA | 0.00657 ± 0.0034 |
| GAAUUCCUCUGGAUCUACUGGGUAUGGAUA [g8:g30:cont:t1A] | 0.0139 ± 0.0067 |
| CUUAACCUCUGGAUCUACUAGGGUUACCUAA | 0.00445 ± 0.0037 |
| CUUAAGGAGACCUAGAUGAGGCGUUACCUAA | 0.00494 ± 0.0017 |
| CUUAAGGUCUGAUCUACUGGGUUACCUAA | 0.0176 ± 0.0042 |
| CUUAUCCUCUGGAUCUACUGGGUUACCUGA | 0.484 ± 0.14 |
| CUUAAGCACUGGAUCUACUGGGUUACCUUA | 0.16 ± 0.016 |
| CUUAAGCUCUGGAUCUACUGGGUUAGCUAA | 0.229 ± 0.026 |
| CUUUUCCUCUGGAUGUACUGGGUUACCUUA | 0.365 ± 0.033 |
| CUUAACCUCUGGAUCUACAGGCUUACCUAA | 0.0258 ± 0.0056 |
| CUUAAGGUCUGGAUCUACAGGGUUACCUUA | 0.0564 ± 0.011 |
| GAAUUGCUCUGGAUCAACUGGGUUACCUAA | 0.0588 ± 0.021 |
| CUUAACCUCUCGAUCUACUGGGUUACCUAA | 0.429 ± 0.037 |
| CUAUUCCUCAGGAUCUACUGGGAUACCUAA | 0.37 ± 0.041 |
| CUUAAGGUGUGGAUCUACUGGGAUACCUAA | 0.0259 ± 0.0087 |
| CUUAACCUCAGGAUCUACUGGGAUACCUAA | 0.261 ± 0.036 |

| Sequence | pre-steady-state target cleavage rate |
| --- | --- |
| CAAUUCCUCAGGAUCUACUGGGUUUCCUAA | 0.505 ± 0.065 |
| CUAUUCCUCUGGAUCUACUGGGUUCACCUAA | 0.391 ± 0.05 |
| CUAUUCCACUGGUUCUACUGGGUUACCUAA | 0.482 ± 0.034 |
| CAAUUCCUCUGGAUCUACUGGGUUACGAUA | 0.24 ± 0.058 |
| GAAUUCCUCUGGAUGCUACUGGGUUACCUAA | 0.301 ± 0.041 |
| CUUAAGCUCAGGAUCUACUGGGUUACCUAA | 0.349 ± 0.037 |
| CUAUUCCUCAGGAUCAACUGGGUUACCUAA | 0.48 ± 0.043 |
| CUUAAGCUACUGGAUCUACUGGGUUACCUAA | 0.157 ± 0.02 |
| CUAUUGCUCUGGUUCUACUGGGUUACCUAA | 0.426 ± 0.036 |
| CUUAAGGACUGGUUGUACUGGGUUACCUAA | 0.0213 ± 0.02 |
| CUUUUCCUCUCGAUCUACAGGGUUACCUAA | 0.371 ± 0.024 |
| CUUAAGGACUGGAUCUACUGGGUUAUCCUAA | 0.113 ± 0.053 |
| CUUAAGGAGUGGUACUACUGGGUUACCUAA | 0.00729 ± 0.0052 |
| CUUAAGCACUGGAUCUACUGCGUUACCUAA | 0.368 ± 0.045 |
| CUUAAGGACUGGAUCUAGUGGGUUAGCUAA | 0.0132 ± 0.0072 |
| CUAUUCCUGAGGAUCUACUGGGUUACCUAA | 0.3 ± 0.032 |
| CUUAACCUCAGGAUCUACAGGGUUACCUAA | 0.234 ± 0.03 |
| CUUAAGGUCUGGAUCUACUGGGUUACCCUAA | 0.0686 ± 0.018 |
| CUUUUCCUCUGGAUCAUACUGGGUUACCUAA | 0.0109 ± 0.0056 |
| CUUAAGCUCUGGAUCUACUGGGUUCCCUAA | 0.0651 ± 0.013 |
| CUUAAGCUCUGGAUCUACUGGGUUACCCUAA | 0.0176 ± 0.0077 |
| CUUAAGGACUGGAUCUACUGGGUUAGCUAA | 0.0719 ± 0.034 |
| CUUAAGCUCUGGAUCUACUGGGUAACGUAA | 0.146 ± 0.023 |

| Sequence | pre-steady-state target cleavage rate |
| --- | --- |
| CUUAAGCUCUGGUUCUACUGGGUUACGUAA | 0.333 ± 0.022 |
| CUUUUGCUGUGGAUCUACUGGGUUACCUAA | 0.237 ± 0.041 |
| CUUAAGGAGUGGACCUACUGGGUUACCUAA | 0.137 ± 0.018 |
| CUUAAGGACUGGAUCGACUGGGUUACCUAA | 0.0762 ± 0.035 |
| CUUAAGCUCUGUGAUCUACUGGGUUACCUAA | 0.116 ± 0.02 |
| CAAUUGCUCUGGAUGUACUGGGUUACCUAA | 0.328 ± 0.047 |
| CUAUUCCUCUGCAUCUACUGGCUUACCUAA | 0.133 ± 0.013 |
| CUAUACCUCUGGAUCUUCUGGGUUACCUAA | 0.403 ± 0.057 |
| CUUAACCUCUGGAUCUACAGGGUUUCCUAA | 0.0845 ± 0.014 |
| GAAUUCCUCUGGAUCUACUGGGAAACCUAA | 0.204 ± 0.036 |
| GAAUACGUCUGGAUCUACUGGGUUACCUAA | 0.301 ± 0.033 |
| GAAUUCCUCUGGAUCUACUGGGGUACCUAA | 0.109 ± 0.032 |
| GAAUUCCUCUGCUACUACUGGGUUACCUAA | 0.373 ± 0.038 |
| CAAUUCCUCUGGAUCACUGGGUUACCUAA | 0.0316 ± 0.01 |
| CAAUUCCUCUGCAUCUACUGGGAUACCUAA | 0.17 ± 0.023 |
| CUAUUCCUCUGGAUGUACUGGGAUACCUAA | 0.178 ± 0.027 |
| CUAUUCGUCUGGAUCUACUGCGUUACCUAA | 0.379 ± 0.047 |
| CUUAAGGACUGGGUCUACUGGGUUACCUAA | 0.107 ± 0.039 |
| GAAUACCUCUGGAUCUAGUGGGUUACCUAA | 0.0659 ± 0.012 |
| CUUAAGGAGACCUUCUACUGUGUUACCUAA | 0.00649 ± 0.0034 |
| CAAUACCUCUGGAUCUACUGGGUUACCAAA | 0.479 ± 0.072 |
| GAAUUCCUCUGGAUCAACAGGGUUACCUAA | 0.114 ± 0.02 |
| CUUAACCUCUGGAUUACUGGGUUACCUAA | 0.398 ± 0.03 |
